We go through twelve molecules from publication PMC11995724, “Antibiotic target discovery by integrated phenotypic and activity-based profiling of electrophilic fragments” (Cell chemical biology, 2025).

Each structure is given as a SMILES string. Among all 3,200 compounds or so, about 75 (2%) showed an effect of 50% or more. Some of the results follow.

The test has as its system T1, S. aureus MSSA476.
T1 construct: MSSA476
The arrangement: species or system S. aureus MSSA476 (TSB) or V. cholerae SAD30 (LB); 384-well bacterial growth screen at 25 uM, OD600 relative to DMSO control. To be noted: relative growth, OD600, TSB; 25 µM; inhibitor.
With `C=CC(=O)NC1(c2nc(C)no2)CC1` [3-L09, N-[1-(3-methyl-1,2,4-oxadiazol-5-yl)cyclopropyl]prop-2-enamide], the “% of control remaining” value was determined as 116.326%.

For `C=CC(=O)NC(C)C1(S(C)(=O)=O)CC1` (stereo not drawn) [2-P05, N-[1-(1-methanesulfonylcyclopropyl)ethyl]prop-2-enamide], the “% of control remaining” value is recorded as 80.7659%.

Take `Cc1ccccc1NC(=O)C(C#N)=Cc1cc(C)n(C2CC2)c1C` [8-A16, 2-cyano-3-(1-cyclopropyl-2,5-dimethyl-1H-pyrrol-3-yl)-N-(2-methylphenyl)prop-2-enamide]: the “% of control remaining” value was 98.2573%.

As for `CC(C)C(NC(=O)CCl)c1ccc(Cl)cc1F` (stereo not drawn) [7-J22, 2-chloro-N-[1-(4-chloro-2-fluorophenyl)-2-methylpropyl]acetamide], the “% of control remaining” value was determined as 84.4584%.

For the molecule `C=CC(=O)N1CCC(C(=O)N[C@H]2CCO[C@@H]2c2cccnc2)CC1` (racemic) [2-G20, rac-1-(prop-2-enoyl)-N-[(2R,3S)-2-(pyridin-3-yl)oxolan-3-yl]piperidine-4-carboxamide], the “% of control remaining” value came to 108.268%.

With `C=CC(=O)Nc1cc(-c2ccco2)nn1C(C)(C)C` [1-K19, N-[1-tert-butyl-3-(furan-2-yl)-1H-pyrazol-5-yl]prop-2-enamide], the “% of control remaining” value amounted to 129.407%.

Take `N#CC(=Cc1cc2c(cc1[N+](=O)[O-])OCO2)C(=O)NC1CCCCC1` [8-F22, 2-cyano-N-cyclohexyl-3-(6-nitro-1,3-dioxaindan-5-yl)prop-2-enamide]: the “% of control remaining” value is on record as 96.9295%.

Regarding `N#CC(=Cc1ccco1)C(=O)Nc1cccc2ncccc12` [8-B20, 2-cyano-3-(furan-2-yl)-N-(quinolin-5-yl)prop-2-enamide], the “% of control remaining” value was found to be 84.6473%.

For `CC(Cl)C(=O)N1CCn2c(cc3c(Cl)cccc32)C1` (stereo not drawn) [7-D17, 2-chloro-1-{9-chloro-1H,2H,3H,4H-pyrazino[1,2-a]indol-2-yl}propan-1-one], the “% of control remaining” value stood at 101.413%.

Consider `N#CC(=Cc1cccs1)C(=O)Nc1cccc2ccccc12` [9-M22, 2-cyano-N-(naphthalen-1-yl)-3-(thiophen-2-yl)prop-2-enamide], for which the “% of control remaining” value stood at 109.363%.

On to `Cc1cc(N(CCC#N)C(=O)CCl)ccc1Cl` [4-K15, 2-chloro-N-(4-chloro-3-methylphenyl)-N-(2-cyanoethyl)acetamide], for which the “% of control remaining” value turned out to be 119.295%.

For `C=CC(=O)Nc1nc(Cc2ccccc2)c(C)s1` [1-B16, N-(4-benzyl-5-methyl-1,3-thiazol-2-yl)prop-2-enamide], the “% of control remaining” value was 124.835%.
